# Values joined by “and” are separate entries in the source; they are usually repeats but may differ in a detail not shown here. Equal values may be shown once. In all, about 5,300 compounds were measured (“PER2::LUC luminescence relative to vehicle control”: median about 0.96, highest 2% from about 1.3 on). Some of the results follow.
# Tested on: mPer2Luc MEF
# Assay: PER2::LUC luminescence relative to vehicle control (fold of vehicle); higher = higher PER2::LUC reporter signal
# Conditions: 10 µM
# Outline: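 Mouse embryonic fibroblasts carrying the mPer2Luc reporter were seeded at ~3000 cells per well in 384-well plates, 48 h before compounds from commercial libraries were added at 10 μM. Cells were grown in DMEM with 10% FBS at 37 °C and 5% CO2. Luminescence was read with the ONE-Glo luciferase assay system 24 h and 30 h after treatment, followed by an alamarBlue viability assay. The value is PER2::LUC luminescence as fold of vehicle control.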
SMILES,PER2::LUC luminescence (time after treatment 24 h),PER2::LUC luminescence (time after treatment 30 h)
COc1ccc(/C=C/C(=O)c2c(O)cc(OC)cc2OC)cc1,1.08,1.04
C#CCCCCCCCCCCCc1ccco1,0.986,1.01
FC(F)c1nc2ccccc2n1-c1nc(N2CCOCC2)nc(N2CCOCC2)n1,0.473,0.417
O=C1C2CC3CC1CC(O)(C3)C2,1.1 and 1.07,1.01 and 0.937
CCN1CCN(c2cc3c(cc2F)c(=O)c(C(=O)O)cn3C2CC2)CC1,0.718,1
CCN1CCC[C@H]1CNC(=O)c1c(OC)ccc(Br)c1OC,1.03,0.993
Nc1nc2[nH]cc(CCc3ccc(C(=O)O)cc3)c2c(=O)[nH]1,0.282,0.41
COc1ccc2c(OC)c3ccoc3nc2c1OC,1,1.01
C1CCN2C[C@@H]3C[C@@H](CN4CCCC[C@@H]34)[C@H]2C1,0.994 and 0.952 and 0.532,0.989 and 0.946 and 1.01
CC(C)[C@](O)(c1ccc2cc(OC(F)F)c(OC(F)F)cc2c1)c1c[nH]nn1,1.15,1.04
COc1ccccc1S(=O)(=O)Nc1ccc2c(c1)CN(C)C(=O)N2,0.315,0.329
C[C@H]1CN(C[C@H](Cc2ccccc2)C(=O)NCC(=O)O)CC[C@@]1(C)c1cccc(O)c1,0.951,1.06
CCCCCCCC/C=C/CCCCCCCCOP(=O)([O-])OCC[N+](C)(C)C,1.02,0.935
CC1CC(OC(=O)C(O)c2ccccc2)CC(C)(C)N1C (stereo not drawn),0.997,1.05
CN(C)CCOc1ccc(/C(=C(/CCCl)c2ccccc2)c2ccccc2)cc1,1.1 and 0.831 and 0.774,1 and 0.954 and 0.824
CC(C)(Cc1ccc2ccccc2c1)NC[C@@H](O)COc1cccc(Cl)c1C#N,0.478,0.582
CCN1CCN(C(=O)N[C@@H](C(=O)N[C@@H]2C(=O)N3C(C(=O)O)=C(CSc4nnnn4C)CS[C@H]23)c2ccc(O)cc2)C(=O)C1=O,0.973 and 0.949,0.921 and 0.9
Cc1ccc(Cl)c(Nc2ccccc2C(=O)O)c1Cl,0.952 and 1.23,0.856 and 0.956
C=C1/C(=C\C=C2/CCC[C@]3(C)[C@@H]([C@H](C)/C=C/[C@@H](O)C4CC4)CC[C@@H]23)C[C@@H](O)C[C@@H]1O,1.07 and 0.929,1.01 and 0.919
O=C(NCCO[N+](=O)[O-])c1cccnc1,0.981,1.03
Cc1ncc(NC(=O)c2ccc(CN3CCN(C)CC3)c(C(F)(F)F)c2)cc1Nc1nccc(-c2cccnc2)n1,0.666,0.742
CC1=Nc2ccc(Cl)cc2S(=O)(=O)N1,0.859,0.958
Cc1nc(C#Cc2ccnc(Cl)c2)c(C)n1-c1ccc(F)cc1,0.836,0.906
CO[C@@]12[C@H](COC(N)=O)C3=C(C(=O)C(C)=C(N)C3=O)N1C[C@@H]1N[C@@H]12,1.12 and 1.13,0.794 and 0.757
CC(C(=O)O)c1ccc(N2Cc3ccccc3C2=O)cc1 (stereo not drawn),1.02,1.34
Cc1cc(/N=N/c2ccc(S(=O)(=O)Nc3ccccn3)cc2)c(N)cc1O,0.688,0.741
Oc1ccc(OCc2ccccc2)cc1,0.881,0.949

SMILES,PER2::LUC luminescence (time after treatment 24 h),PER2::LUC luminescence (time after treatment 30 h)
COc1cccc(/C=N/N(C(=O)C(F)(F)F)c2ccc(C)cc2C)c1,0.818,0.768
COC(=O)CNC(=O)C(=O)OC,0.922,0.99
CC(C)=CCC[C@]1(C)[C@@H](CC=C(C)C)C[C@@]2(CC=C(C)C)C(=O)[C@]1(C(=O)C(C)C)C(=O)C(CC=C(C)C)=C2O,1.03,0.916
CC(C)C1=CC2=CC[C@@H]3[C@](C)(CCC[C@@]3(C)C(=O)O)[C@H]2CC1,1.34,1.15
CNC(=O)[C@H](Cc1c[nH]c2ccccc12)NC(=O)[C@@H](CC(=O)NO)CC(C)C,1.15,1.04
CC1=C([C@@H]2C=C3[C@@H](CC[C@]4(C)[C@@H]([C@H](C)CCCC(C)(C)O)CC[C@@H]34)n3c(=O)n(-c4ccccc4)c(=O)n32)C[C@@H](O)C[C@@H]1O,0.906,0.964
CCCn1c(=O)c2c(ncn2C)n(CCC)c1=O,0.97,0.864
C[C@H]1C[C@H]2[C@@H]3CCC4=CC(=O)C=C[C@]4(C)[C@@]3(F)[C@@H](O)C[C@]2(C)[C@@]1(O)C(=O)CO,0.69,1.11
O=C(O[C@@H]1Cc2c(O)cc(O)cc2O[C@@H]1c1cc(O)c(=O)c2c(O)c(O)cc([C@H]3Oc4cc(O)cc(O)c4C[C@H]3O)c2c1)c1cc(O)c(O)c(O)c1,0.88,0.825
COC(=O)CC[C@@H](C)[C@H]1CC[C@H]2[C@@H]3CC[C@@H]4C[C@H](O)CC[C@]4(C)[C@H]3C[C@H](O)[C@]12C,0.887,1.02
O=C(O)/C=C/c1ccc(Cn2ccnc2)cc1,0.915,0.724
CN1CCN(c2nc3cc(C(F)(F)F)ccc3n3cccc23)CC1,0.664 and 0.625,0.821 and 0.773
CNC(=O)c1cc(COc2nnc(Nc3ccc(Cl)cc3)c3ccoc23)ccn1,0.902,0.844
O=C[C@H](O)[C@@H](O)[C@H](O)CO (racemic),0.94,1.06
CC(=O)O[C@H](CC(=O)O)C[N+](C)(C)C,1.03,0.967
CCCc1nc(C)c2c(=O)nc(-c3cc(S(=O)(=O)N4CCN(CC)CC4)ccc3OCC)[nH]n12,0.891 and 0.829,0.806 and 0.8
CN1CCN(c2cc3c(nn2)Oc2ccccc2N3C)CC1,1.07,1.28
CCn1nc(C(=O)O)c(=O)c2cc3c(cc21)OCO3,1.15,0.751
O=C(O)C(S)C(S)C(=O)O (stereo not drawn),0.982,0.899
COc1cc2c(cc1OC)C(c1ccc(N)cc1)=NNC(=O)C2,0.992,0.99
Cc1cc(/C=C/c2ccc3cc(N(C)C)ccc3[n+]2C)c(C)n1-c1ccccc1,0.18,0.144
O=c1c(-c2ccc(O)cc2)coc2c([C@@H]3O[C@H](CO)[C@@H](O)[C@H](O)[C@H]3O)c(O)ccc12,1.02,0.928
CC(C)(Oc1ccc(C(=O)c2ccc(Cl)cc2)cc1)C(=O)O,0.939,0.863
CCCCNc1ccc(C(=O)OCCOCCOCCOCCOCCOCCOCCOCCOCCOC)cc1,1.07,0.94
Cc1cc([C@@H](C)Nc2ccccc2C(=O)O)c2nc(N3CCOCC3)cc(=O)n2c1,0.852,0.769
COc1cc(O)c(C(=O)Nc2nc(C(=O)NCCN(C(C)C)C(C)C)cs2)cc1OC,0.893,0.853
CCOc1nc2cccc(C(=O)O)c2n1Cc1ccc(-c2ccccc2-c2noc(=O)[nH]2)cc1,1.04 and 1.06,1.01 and 0.993

SMILES,PER2::LUC luminescence (time after treatment 24 h),PER2::LUC luminescence (time after treatment 30 h)
CC(C)=CCC/C(C)=C/CC/C(C)=C/CC/C(C)=C/CC/C(C)=C/CC/C(C)=C/CC/C(C)=C/CC/C(C)=C/CC/C(C)=C/CO,0.994,0.934
O=S1(=O)OC(c2ccc(O)cc2)(c2ccc(O)cc2)c2ccccc21,0.9,0.927
COCCOC(=O)C1=C(C)NC(C)=C(C(=O)OC/C=C/c2ccccc2)C1c1cccc([N+](=O)[O-])c1 (stereo not drawn),0.837,1.13
CC1(C)C(/C=C/C=C/C=C/C=C2\N(CCCCS(=O)(=O)O)c3ccc4ccccc4c3C2(C)C)=[N+](CCCCS(=O)(=O)[O-])c2ccc3ccccc3c21,1.04,0.915
CCCCN(CCCC)C(=O)CN1C[C@H](c2ccc3c(c2)OCO3)[C@@H](C(=O)O)[C@@H]1c1ccc(OC)cc1,2.23,2.08
CC(C)c1cc(-c2ccc(F)c3ccccc23)nc(N)n1,0.882,0.987
O=C(NOC[C@H](O)CO)c1ccc(F)c(F)c1Nc1ccc(I)cc1F,0.224,0.161
Cc1occc1C(=O)n1ccnc1,0.986,0.971
Cc1cc(C)c(/C=C2\C(=O)Nc3ccccc32)[nH]1,1 and 0.897 and 0.813,0.969 and 0.927 and 0.792
CC(C)/C(O)=C1/C(=O)O[C@@H](c2ccoc2)[C@]2(C)C(O)[C@@H](O)[C@@]34OC5(C)OC67CC(C)(C(O)[C@]6(O)[C@@H](O)[C@]3(O5)C12)[C@H](CC(=O)O)[C@]74C (stereo partly drawn),0.962,0.928
CC[C@H]1OC(=O)[C@H](C)[C@@H](O[C@H]2C[C@@](C)(OC)[C@@H](O)[C@H](C)O2)[C@H](C)[C@@H](O[C@@H]2O[C@H](C)C[C@H](N(C)C)[C@H]2O)[C@](C)(O)C[C@@H](C)[C@@H]2N[C@@H](COCCOC)O[C@H]([C@H]2C)[C@]1(C)O,0.935,0.829
O=C1CC2(CCCC2)CC(=O)N1CCCCN1CCN(c2ncccn2)CC1,0.949,0.87
O=C1Nc2nc(-c3c(O)cccc3OCC3CC3)cc([C@@H]3CCCNC3)c2CO1,0.574,0.66
CC1(C)CC[C@]2(C(=O)O)CC[C@]3(C)C(=CC[C@@H]4[C@@]5(C)CC[C@H](O)[C@@](C)(CO)[C@@H]5CC[C@]43C)[C@@H]2C1,0.969,0.905
CNC(C)C1CCC(N)C(OC2C(N)CC(N)C(OC3OCC(C)(O)C(NC)C3O)C2O)O1 (stereo not drawn),1.04,1.08
Cc1c(F)cc(C(=O)NC2CC2)cc1-c1ccc(C(=O)NCC(C)(C)C)cn1,0.786,0.934
N#Cc1cc(-c2n[nH]c(-c3ccncc3)n2)ccn1,1.13,1.01
CCn1ccnc1CC1COc2ccccc2O1 (stereo not drawn),0.818,0.86
O=C(/C=C/c1ccc(CN(CCO)CCc2c[nH]c3ccccc23)cc1)NO,0.472 and 0.431,0.317 and 0.283
CCOC(=O)C12CC1/C(=N/O)c1ccccc1O2 (stereo not drawn),1.09,1.02
Cc1nc(-c2cn3c(n2)-c2ccc(-c4cnn(C(C)(C)C(N)=O)c4)cc2OCC3)n(C(C)C)n1,0.464,0.356
CC(C)(C)c1ccc(-c2nc3ccccc3[nH]2)cc1,0.03,0.034
C=CCN1CCc2c(cc(O)c(O)c2Br)[C@@H](c2ccccc2)C1,0.467,0.633
C[C@@H]1C[C@H]2[C@@H]3C[C@H](F)C4=CC(=O)C(Cl)=C[C@]4(C)[C@@]3(F)[C@@H](O)C[C@]2(C)[C@@]1(O)C(=O)CO,0.765,0.857
COC(=O)N(C)c1c(N)nc(-c2nn(Cc3ccccc3F)c3ncccc23)nc1N,1.06,0.859
